This note sets out measurements from the supplement of paper PMC7826260.

This is one part of the list. Each Rep nickase domain was tested in vitro on the same pool of single strands at 3 µM enzyme and 37 °C for 1 h; the strands have 90 letters, of which the middle is given. A value is the log2 ratio of uncut reads to the pool without enzyme; more negative means more cut, near 0 not cut, and no call is made. The scaling is to total reads; values above 0 arise when much of the pool is cut.

The first assay relates to T1, Rep nickase domain of porcine circovirus 2.
T1 sequence (residues 2-116 of Rep, tag left off): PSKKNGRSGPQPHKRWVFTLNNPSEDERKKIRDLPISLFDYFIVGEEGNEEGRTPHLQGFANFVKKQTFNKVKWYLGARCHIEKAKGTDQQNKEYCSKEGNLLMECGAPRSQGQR
Briefly: uncleaved DNA left, log2 of reads against the no-enzyme library (log2 ratio); higher = less cleavage (more negative = more Rep cleavage of the k-mer); sequences stand for … in CTCGTCCG…ACCGGAGA
The protocol:
(§1)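 A pool of 90-nt single-stranded DNAs with seven random bases just before the constant AC of the nick site (name = the seven bases) was cut by 3 µM recombinant His6-SUMO-tagged Rep nickase domain (300 nM DNA, 50 mM HEPES pH 8.0, 50 mM NaCl, 1 mM MnCl2, 1 h, 37 °C, three replicates). Uncut DNA was amplified and sequenced.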
As for CTGGGAG, the “uncleaved DNA left (log2)” value was 0.161.
In the case of TGATATT, the “uncleaved DNA left (log2)” value was -4.02.
Consider TAAATCG, for which the “uncleaved DNA left (log2)” value was 0.208.
Consider GGCCGCC, for which the “uncleaved DNA left (log2)” value came to 0.0688.
The same measure, in the same setting: as for CCCACGA, the figure is -0.0794.
Turning to TTGATTA, the “uncleaved DNA left (log2)” value was -0.164.
For AAAATGG, the “uncleaved DNA left (log2)” value stood at 0.16.
As to TGTAAGT, the “uncleaved DNA left (log2)” value is -0.103.
Same read-out and setting: as for AGGATCT, the figure is -0.0299; as for ATGATAA, 0.102; as for GGGTATA, 0.191.
On to ATGAGAC, for which the “uncleaved DNA left (log2)” value was found to be 0.238.
Take AGGAAAG: the “uncleaved DNA left (log2)” value was 0.0892.
The same measure, in the same setting: as for CATCCCA, the figure is -0.184; as for ATGTAGA, 0.0208.
As for GGTTCAA, the “uncleaved DNA left (log2)” value amounted to 0.173.
Regarding TTACACA, the “uncleaved DNA left (log2)” value is -0.118.
Same read-out and setting: the value for GGTGCTC was 0.0611.
As to AGTCCGC, the “uncleaved DNA left (log2)” value is -0.0904.
Turning to AAGCACA, the “uncleaved DNA left (log2)” value was -0.406.
For the sequence TTAATGG, the “uncleaved DNA left (log2)” value turned out to be 0.283.
As to AACAATT, the “uncleaved DNA left (log2)” value is -3.77.
Still for that read-out and setting: the value for GGCCCAA was 0.195; that for CGGCCGG was 0.25; that for AGAACCT was -0.0616.
As for AATACAG, the “uncleaved DNA left (log2)” value was 0.19.
For the sequence GCTAGGT, the “uncleaved DNA left (log2)” value amounted to 0.118.
Regarding GATTATC, the “uncleaved DNA left (log2)” value was -0.524.
In the case of TCCACCC, the “uncleaved DNA left (log2)” value was -0.645.
Turning to GAGGAGC, the “uncleaved DNA left (log2)” value was 0.293.
As for AGTCGTG, the “uncleaved DNA left (log2)” value is 0.236.
Take GCATAGT: the “uncleaved DNA left (log2)” value is -2.53.
For the sequence TCCGTGT, the “uncleaved DNA left (log2)” value came out at 0.0586.
GTGACAG: the “uncleaved DNA left (log2)” value came out at 0.0429.
For the sequence AACTTGA, the “uncleaved DNA left (log2)” value was -0.616.
On the same count and under the same terms, as for CTCTCTG, the figure is -0.0552; as for GAATTCA, -0.596.
Consider ACGGGGA, for which the “uncleaved DNA left (log2)” value turned out to be 0.102.
Regarding CCACTAG, the “uncleaved DNA left (log2)” value came to 0.0533.
Turning to CTCCCAT, the “uncleaved DNA left (log2)” value was -0.157.

The subject of another assay is T2, Rep nickase domain of tomato golden mosaic virus.
T2 sequence (residues 1-124 of Rep, tag left off): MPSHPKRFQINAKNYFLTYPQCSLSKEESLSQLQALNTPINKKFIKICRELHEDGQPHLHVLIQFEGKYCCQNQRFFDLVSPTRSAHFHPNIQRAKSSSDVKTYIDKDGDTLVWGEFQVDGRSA
The assay is described as above. The protocol:
as §1
For the sequence CTGGGAG, the “uncleaved DNA left (log2)” value amounted to 0.133.
On the same count and under the same terms, as for TGATATT, the figure is -0.848; as for TAAATCG, -0.0108; as for GGCCGCC, -0.0454.
Take CCCACGA: the “uncleaved DNA left (log2)” value was -0.0227.
Consider TTGATTA, for which the “uncleaved DNA left (log2)” value amounted to 0.0795.
AAAATGG: the “uncleaved DNA left (log2)” value was 0.153.
The same measure, in the same setting: as for TGTAAGT, the figure is 0.0514.
Still for that read-out and setting: as for AGGATCT, the figure is 0.00768; as for ATGATAA, 0.0474; as for GGGTATA, 0.109.
For ATGAGAC, the “uncleaved DNA left (log2)” value worked out at 0.00851.
With AGGAAAG, the “uncleaved DNA left (log2)” value is -0.00911.
Consider CATCCCA, for which the “uncleaved DNA left (log2)” value is -0.0646.
Regarding ATGTAGA, the “uncleaved DNA left (log2)” value is -0.0857.
With GGTTCAA, the “uncleaved DNA left (log2)” value is 0.137.
Consider TTACACA, for which the “uncleaved DNA left (log2)” value was -0.0797.
On to GGTGCTC, for which the “uncleaved DNA left (log2)” value is -0.0846.
In the case of AGTCCGC, the “uncleaved DNA left (log2)” value was -0.0468.
Same read-out and setting: the value for AAGCACA was -0.0165; that for TTAATGG was 0.244.
On to AACAATT, for which the “uncleaved DNA left (log2)” value is -0.12.
GGCCCAA: the “uncleaved DNA left (log2)” value worked out at 0.169.
On to CGGCCGG, for which the “uncleaved DNA left (log2)” value came to 0.21.
As for AGAACCT, the “uncleaved DNA left (log2)” value was -0.0367.
In the case of AATACAG, the “uncleaved DNA left (log2)” value is -0.0126.
As for GCTAGGT, the “uncleaved DNA left (log2)” value was 0.0816.
As for GATTATC, the “uncleaved DNA left (log2)” value was -0.0502.
Take TCCACCC: the “uncleaved DNA left (log2)” value was -0.148.
Consider GAGGAGC, for which the “uncleaved DNA left (log2)” value came out at 0.192.
As to AGTCGTG, the “uncleaved DNA left (log2)” value is -0.059.
As to GCATAGT, the “uncleaved DNA left (log2)” value is -0.0776.
Regarding TCCGTGT, the “uncleaved DNA left (log2)” value stood at 0.0246.
Take GTGACAG: the “uncleaved DNA left (log2)” value was -0.00669.
In the case of AACTTGA, the “uncleaved DNA left (log2)” value was -0.0633.
On the same count and under the same terms, as for CTCTCTG, the figure is -0.0664; as for GAATTCA, 0.00139; as for ACGGGGA, -0.136.
The same measure, in the same setting: the value for CCACTAG was 0.0305; that for CTCCCAT was -0.215.

In the next assay the test system is T3, Rep nickase domain of tomato yellow leaf curl virus.
T3 sequence (residues 1-136 of Rep, tag left off): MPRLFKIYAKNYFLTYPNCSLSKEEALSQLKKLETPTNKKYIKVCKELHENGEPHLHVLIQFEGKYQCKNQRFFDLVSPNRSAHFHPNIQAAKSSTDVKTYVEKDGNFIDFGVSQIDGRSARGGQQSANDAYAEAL
The description is as above. The protocol: as §1
With CTGGGAG, the “uncleaved DNA left (log2)” value came to 0.0249.
Take TGATATT: the “uncleaved DNA left (log2)” value is -0.068.
With TAAATCG, the “uncleaved DNA left (log2)” value is -0.0346.
As to GGCCGCC, the “uncleaved DNA left (log2)” value came to 0.0427.
On the same count and under the same terms, the value for CCCACGA was -0.107.
Turning to TTGATTA, the “uncleaved DNA left (log2)” value was determined as 0.0491.
As to AAAATGG, the “uncleaved DNA left (log2)” value was determined as 0.0671.
On the same count and under the same terms, the value for TGTAAGT was 0.106.
On to AGGATCT, for which the “uncleaved DNA left (log2)” value was found to be 0.0427.
Regarding ATGATAA, the “uncleaved DNA left (log2)” value was -0.0411.
Consider GGGTATA, for which the “uncleaved DNA left (log2)” value came to 0.0369.
Regarding ATGAGAC, the “uncleaved DNA left (log2)” value was -0.0458.
As for AGGAAAG, the “uncleaved DNA left (log2)” value was -0.00127.
Regarding CATCCCA, the “uncleaved DNA left (log2)” value was 0.0409.
Take ATGTAGA: the “uncleaved DNA left (log2)” value is -0.0349.
Regarding GGTTCAA, the “uncleaved DNA left (log2)” value is 0.127.
Same read-out and setting: the value for TTACACA was -0.142; that for GGTGCTC was 0.11.
Consider AGTCCGC, for which the “uncleaved DNA left (log2)” value was determined as 0.0302.
AAGCACA: the “uncleaved DNA left (log2)” value was -0.0951.
As to TTAATGG, the “uncleaved DNA left (log2)” value was 0.0466.
The same measure, in the same setting: the value for AACAATT was -0.132.
As to GGCCCAA, the “uncleaved DNA left (log2)” value is 0.221.
Regarding CGGCCGG, the “uncleaved DNA left (log2)” value was determined as 0.173.
Turning to AGAACCT, the “uncleaved DNA left (log2)” value was 0.0535.
On the same count and under the same terms, the value for AATACAG was 0.0674; that for GCTAGGT was 0.0205.
On the same count and under the same terms, as for GATTATC, the figure is 0.172; as for TCCACCC, -0.11.
Still for that read-out and setting: the value for GAGGAGC was 0.221; that for AGTCGTG was 0.0645.
Take GCATAGT: the “uncleaved DNA left (log2)” value amounted to 0.0147.
Still for that read-out and setting: as for TCCGTGT, the figure is 0.122; as for GTGACAG, -0.0514.
Take AACTTGA: the “uncleaved DNA left (log2)” value was 0.0856.
As for CTCTCTG, the “uncleaved DNA left (log2)” value was -0.166.
On the same count and under the same terms, as for GAATTCA, the figure is 0.0611.
For the sequence ACGGGGA, the “uncleaved DNA left (log2)” value was -0.222.
Still for that read-out and setting: the value for CCACTAG was -0.0676; that for CTCCCAT was 0.165.
